Measurements reported in PubChem BioAssay (NCI).
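Cells were grown in 96-well plates and exposed to each compound for 48 hours at five concentrations; endpoints were interpolated linearly between bracketing concentrations, or set to the highest concentration if not reached. Here, GI50 denotes the concentration required for 50% inhibition of growth.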 The source holds more than one record for some entries. This is not the full list of results. An entry can have further records. Results that share an entry are repeated measurements (runs, samples, wells, individuals or studies). A tag in brackets gives the origin of a value. A, B and so on number the origins entry by entry.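 At the TGI there is no net growth.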

Experiments:
Assay in all cases: inhibition of tumour cell growth, NCI panel, 48 h
OVCAR-3 ovarian = system: OVCAR-3 ovarian
PC-3 prostate = system: PC-3 prostate
COLO 205 colon = system: COLO 205 colon
OVCAR-4 ovarian = system: OVCAR-4 ovarian
RPMI-8226 leukemia = system: RPMI-8226 leukemia
IGROV1 ovarian = system: IGROV1 ovarian
UO-31 renal = system: UO-31 renal
SK-MEL-2 melanoma = system: SK-MEL-2 melanoma
NCI-H226 lung = system: NCI-H226 lung
TK-10 renal = system: TK-10 renal
SK-MEL-5 melanoma = system: SK-MEL-5 melanoma
BT-549 breast = system: BT-549 breast
SF-268 CNS = system: SF-268 CNS
A498 renal = system: A498 renal
OVCAR-5 ovarian = system: OVCAR-5 ovarian
NCI-H522 lung = system: NCI-H522 lung
HOP-92 NSCLC = system: HOP-92 NSCLC
MALME-3M melanoma = system: MALME-3M melanoma

Row | Structure (SMILES) | TGI (OVCAR-3 ovarian) | TGI (PC-3 prostate) | TGI (COLO 205 colon) | GI50 (OVCAR-4 ovarian) | TGI (OVCAR-4 ovarian) | TGI (RPMI-8226 leukemia) | TGI (IGROV1 ovarian) | TGI (UO-31 renal) | GI50 (SK-MEL-2 melanoma) | GI50 (NCI-H226 lung) | GI50 (TK-10 renal) | TGI (SK-MEL-5 melanoma) | TGI (BT-549 breast) | GI50 (SF-268 CNS) | TGI (A498 renal) | GI50 (OVCAR-5 ovarian) | TGI (NCI-H522 lung) | GI50 (HOP-92 NSCLC) | GI50 (MALME-3M melanoma)
1 | CNC(=O)c1cccc(-c2ccc3c(N4CCOC[C@@H]4C)nc(N4CCOC[C@@H]4C)nc3n2)c1 | 1.19 µM [sample A, 1 test] and > 6.14 µM [sample B, mean of 2 tests] and 38.2 µM [sample C, mean of 2 tests] | 521 nM [sample A, 1 test] and > 10 µM [sample B, mean of 2 tests] and 651 nM [sample C, mean of 2 tests] | > 100 µM [sample A, 1 test] and > 2.91 µM [sample B, mean of 2 tests] and 6.34 µM [sample C, mean of 2 tests] | 46.4 nM [sample A, 1 test] and 147 nM [sample B, mean of 2 tests] and 13.8 nM [sample C, 1 test] | 1.52 µM [sample A, 1 test] and 917 nM [sample B, mean of 2 tests] and 95.8 nM [sample C, 1 test] | 11.2 µM [sample A, 1 test] and > 3.8 µM [sample B, mean of 2 tests] and 333 nM [sample C, 1 test] | 54.6 µM [sample A, 1 test] and 349 nM [sample B, mean of 2 tests] and 158 nM [sample C, mean of 2 tests] | 11.2 µM [sample A, 1 test] and 1.43 µM [sample B, mean of 2 tests] and 414 nM [sample C, mean of 2 tests] | – | – | – | – | – | – | – | – | – | – | –
2 | COc1ccc(-c2cn[nH]c2-c2cc(OC)c(OC)c(OC)c2)cc1N | < 10 nM [sample A, 1 test] and 5.12 µM [sample B, mean of 2 tests] | – | 25 nM [sample A, 1 test] and 477 nM [sample B, mean of 2 tests] | – | – | – | – | – | < 10 nM [sample A, 1 test] and 428 nM [sample B, mean of 2 tests] | 19.8 µM [sample A, 1 test] and 137 nM [sample B, 1 test] | < 10 nM [sample A, 1 test] and 19.5 µM [sample B, mean of 2 tests] | 25.6 nM [sample A, 1 test] and 260 nM [sample B, mean of 2 tests] | 37.9 nM [sample A, 1 test] and > 100 µM [sample B, 1 test] | < 10 nM [sample A, 1 test] and 204 nM [sample B, mean of 2 tests] | 1.11 µM [sample A, 1 test] and 25.8 nM [sample B, 1 test] | 7.05 µM [sample A, 1 test] and 57.8 nM [sample B, mean of 2 tests] | < 10 nM [sample A, 1 test] and > 62.7 µM [sample B, mean of 2 tests] | < 10 nM [sample A, 1 test] and 1.73 µM [sample B, mean of 2 tests] | 39.1 µM [sample A, 1 test] and 87.3 nM [sample B, mean of 2 tests]
